# Experimental data as given in PMC4742118, “The ON:OFF switch, σ1R-HINT1 protein, controls GPCR-NMDA receptor cross-regulation: Implications in neurological disorders” (Oncotarget, 2015).
# B1: GST-NR1 C0-C1-C2 (domain or fragment)
# chain: not shown
# notes: C-terminal region of the glutamate receptor NMDAR1 (NM_008169), […], from mouse brain RNA; also called agarose-NR1 C0-C1-C2; source: E. coli BL21 (KRX), purified (GSTrap FF); not shown: GST, N-terminal, kept
# Key:
# recombinant σ1R = molecular target: T1, recombinant σ1R (murine, UniProt O55242 1-223); assay: pull-down; bait (GST-NR1 C0-C1-C2 or GST-MOR) covalently attached to NHS-activated Sepharose; σ1R 100 nM in 50 mM Tris-HCl pH 7.4, 0.2% CHAPS, 30 min RT; CaCl2 0.25, 0.75 or 2.5 mM; parallel samples with neurosteroids (30 uM) or synthetic σ1R ligands; Western blot; conditions: both partners purified
# T1 construct: murine full-length (1-223) σ1R, GenBank AF004927; Used as prey; also called sigma 1 receptor; source: E. coli BL21 (KRX), purified (GSTrap FF; when necessary cleaved with ProTEV and electroeluted)
# [1] = molecular target: T2, recombinant HINT1 protein (mouse, UniProt P70349 1-126); assay: pull-down; HINT1 protomer 200 nM with GST fusion protein 100 nM in 50 mM Tris-HCl pH 7.4, 2.5 mM CaCl2, 0.2% CHAPS, 30 min RT; captured on glutathione Sepharose 4B; Western blot; conditions: both partners purified
# T2 construct: HINT1, coding region of NM_008248, amplified from mouse brain RNA; also called PKCI/HINT1; source: E. coli BL21 (KRX), purified (GSTrap FF; when necessary cleaved with ProTEV and electroeluted)
# T2 sequence (looked up): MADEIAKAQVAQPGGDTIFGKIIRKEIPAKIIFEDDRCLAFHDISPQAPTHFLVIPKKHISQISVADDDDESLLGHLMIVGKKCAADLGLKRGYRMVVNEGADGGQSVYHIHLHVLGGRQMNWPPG
binder,measurement,setting,value
B1,binding result,recombinant σ1R,binds
same,binding result,[1],binds
